In ChEMBL document CHEMBL4888484, “Replenishing the malaria drug discovery pipeline: Screening and hit evaluation of the MMV Hit Generation Library 1 (HGL1) against asexual blood stage Plasmodium falciparum ,using a nano luciferase reporter read-out” (2022):
About 540 (0.36%) of roughly 150,000 compounds showed an effect of 50% or more. The list shows a part of the results.

system: Plasmodium falciparum; assay: Primary screen in NF54 nanoGlo assay, in single point, at 2uM, 72h; a lower Z score goes with more inhibition; format: functional, Erythrocyte; settings: timepoint 72 hour

SMILES | % Inhibition | Z score
COc1c(C)cc(C)cc1-c1cn(Cc2cccc(C(=O)N(C)C)c2)nn1 | -1% | 0.23
Cc1cccc(C2C(C(=O)O)CC(=O)N2Cc2cccnc2)c1C (centres undefined) | -1% | 0.17
Cn1nc(C(=O)N2CCOCC2)cc1C(=O)Nc1ncn(Cc2ccc(Cl)cc2Cl)n1 | 6% | -0.75
CC(C)c1ccc(C(=O)N(Cc2cccnc2)C2CCCCC2)c(=O)n1C | 16% | -2.2
O=C(CCc1ccsc1)NCc1nnc2ccccn12 | -1% | 0.07
Cc1c([C@@H]2CCCN2c2ncnc(N)c2Cl)cnn1C | -3% | 0.6
COc1cc(Cc2nnc(C(=O)NCCc3ccc(Cl)cc3)o2)cc(OC)c1OC | 1% | -0.08
O=C(NCC(F)(F)C(F)F)c1cnsn1 | -11% | 1.12
CN(Cc1cnc2ccccn12)[C@@H](C(N)=O)c1cccc(F)c1 | 7% | -0.66
Cc1ncsc1-c1nc(-c2cccs2)no1 | 7% | -1.24
CS(=O)(=O)CC1(CN2CCOC[C@@]23CCOC3)CC1 | -9% | 1.71
COCCN1CCN(Cc2cccc(C)c2)[C@H]2CS(=O)(=O)C[C@H]21 | -11% | 2.19
CCN1CCC(N(C)C(=O)c2cccc3[nH]c(C(F)F)nc23)CC1 | -4% | 0.38
Cn1ncc(C(=O)N2CCNC(=O)C2(C)C)c1C(F)F | -5% | 0.68
Cc1cc(C(=O)NCc2cccnc2N2CCOCC2)ns1 | -9% | 1.45
CCCN1C(=O)c2cc(C(=O)NC(C)C)nn2C[C@@]1(C)C(=O)NC1CCCC1 | 13% | -1.49
O=C1c2cccnc2CN1CCCN1CCOCC1 | -8% | 1.46
Cc1ccc2c(c1)OCCN2CCCC(=O)O | -13% | 1.64
C[C@H]1CN(c2ccnc(Cc3ccc(F)cc3)n2)CCCO1 | -12% | 1.31
CC(=O)N(CCN1CCCCC1)[C@H]1CCCN(Cc2ccc3c(c2)OCCO3)C1 | -14% | 1.91
CC(C)(C)c1nnc(CNC(=O)[C@@H]2CCCN2C(=O)c2ccccc2O)s1 | 1% | -0.12
CC(C)c1nsc(NC(=O)c2cccc(CN3C[C@H]4CC[C@@H](C3)N4)c2)n1 | -6% | 0.75

SMILES | % Inhibition | Z score
CCn1cc(CC(=O)N2CC[C@@]3(CCc4ccccc43)C2)nn1 | 0% | -0.05
O=C1CN(C2CC2)C(=O)[C@H](c2ccccc2Br)N1 | -13% | 2.48
Cn1ccnc1CCNC(=O)c1ccc2c(c1)CCCC2 | -28% | 2.44
COc1ccc(/C=C(\NO)C(=O)O)cc1 | -6% | 0.83
CC(=O)N1CCC(Oc2ccnc(C)n2)CC1 | 0% | 0.05
CCOCC(=O)NCC1(c2ccsc2)CCOCC1 | 8% | -1.2
C=CCN(C(=O)[C@@H](O)C1CCN(C(=O)OC(C)(C)C)CC1)C1CC1 | -1% | 0.23
O=S(=O)(CCC1CC1)N1CCC[C@H](n2ccnn2)C1 | -6% | 0.95
CCCC[C@H]1CN(CCNC(=O)Cn2cnnn2)Cc2ccccc2O1 | -4% | 0.54
COc1ccc(C(=O)C2C(c3ccc4c(c3)OCO4)NC(=O)NC2(O)C(F)(F)F)cc1 (centres undefined) | 8% | -1.42
CCc1ccc(NC(=O)c2nnc(CN(C)C[C@H](O)CO)s2)cc1 | 0% | 0.03
CC(N)C1CCCN(C(=O)c2c[nH]nc2-c2ccc(F)c(Cl)c2)C1 (centres undefined) | -5% | 0.88
Fc1ccc(C[C@@H]2NCCn3cccc32)cc1 | -1% | 0.16
Cc1ccc2c(c1)[C@@H](NC(=O)N(C)C1CCS(=O)(=O)CC1)CC(C)(C)O2 | -12% | 1.92
O=C(Nc1ccccc1Cl)N1CCC(c2ccsc2)CC1 | -8% | 1.19
Cc1noc(C)c1CNc1cc(S(=O)(=O)N2CCOCC2)ccc1N1CCCC1 | 5% | -0.81
COc1cc(-c2cc(N3CCN(C)CC3)nc(N)n2)c(Cl)cn1 | -11% | 1.22
COc1ccc(Cc2nc3nccc(-c4ccc(F)cc4OC)n3n2)cc1 | 4% | -0.44
COCc1cc(O)nc(N2CC[C@H](Nc3ncccn3)C2)n1 | -13% | 1.47
CN(c1ncnc2c1c(-c1ccccc1)cn2-c1ccccc1)C1CCCCC1 | -16% | 2.87
CC[C@H](C)n1ncc(C(=O)NCCc2c[nH]c3ccccc23)c1C | 6% | -0.58
O=C(CCc1ccc2c(c1)OCO2)N1CCCC1 | -3% | 0.4

SMILES | % Inhibition | Z score
O=C(Cc1ccccc1)N[C@H]1CC(=O)N(c2ccc3c(c2)OCCO3)C1 | -6% | 1.16
CCc1ccc(CN2CCN(C(=O)[C@@H]3CCC(=O)N3)CC2)s1 | -6% | 1.02
CN(C)S(=O)(=O)N(CCC1CCC1)c1ccccc1Br | 2% | -0.21
C[C@@H](C(=O)NCC1(c2ccccc2)CC1)n1ccnc1 | -4% | 0.4
COCc1csc(Nc2ccc(OC)nc2)n1 | 3% | -0.24
CN1CCN(S(=O)(=O)N2CCN(Cc3cccn3C)CC2)CC1 | 7% | -0.7
COc1ccc(/C=C/c2nc(-c3ccc4c(c3)ncn4CCC(=O)N3CCOCC3)no2)cc1 | -5% | 0.62
CC(CC(=O)N[C@H](C)C(=O)O)c1cccc(C(F)(F)F)c1 (some centres undefined) | -21% | 2.15
CCc1nc(NC(=O)NCc2ncn(C)n2)sc1C | -7% | 1.33
Cc1nc(N2CCC(C(=O)NCCc3cnn(-c4ccccc4)c3)CC2)nc2ccc(C(C)C)cc12 | -2% | 0.32
COC[C@H](C)NS(=O)(=O)c1ccc(F)c(Br)c1 | -1% | 0.15
Cc1ncc(S(C)(=O)=O)c(N(C)Cc2cc(-c3cccs3)n[nH]2)n1 | -24% | 3.68
CC(C)(C)c1ccc(C(=O)N[C@H]2CCCC[C@@H]2NC(=O)c2ccc(C(C)(C)C)cc2)cc1 | 48% | -6.19
CC1(C)Cc2c(cnn2-c2cccc(F)c2)[C@@H](NCc2cccnc2)C1 | -2% | 0.26
N#Cc1cccnc1NCCCc1ccccc1 | 20% | -2.51
CN(C[C@H]1CCCCO1)C(=O)NC(C)(C)c1cccc2ccccc12 | -9% | 1.5
Cc1nc(-c2oc(C)nc2C)n(-c2ccc3c(c2)OCO3)n1 | -9% | 0.85
Cc1csc(C(=O)NCCc2nc(-c3cccs3)c[nH]2)c1 | -2% | 0.28
Cc1nc(CNC(=O)c2cnc(Cc3c(Cl)cccc3Cl)nc2O)cs1 | -1% | 0.15
CNc1nc(C(=O)N2CCNC[C@H]2C(=O)N2CCCC2)cs1 | -5% | 0.86
Cc1nnc2n1CCN(c1ccccc1)C2=O | -11% | 1.36
CN(CC(=O)N(C)[C@H]1CCN(CC(F)(F)F)C1=O)c1ccccc1 | -13% | 1.91

SMILES | % Inhibition | Z score
CC1CCC2(CC1)NC(=O)N(Cc1nnc(-c3ccccc3)o1)C2=O (centres undefined) | -2% | 0.16
CC(C)Cc1ncc2c(n1)CN(c1ncnc3[nH]cnc13)C2 | 2% | -0.3
Cc1nnnn1CCC(=O)NC(C)(C)CC(C)C | -20% | 2.67
C[C@@H](NCc1cccn1Cc1ccccc1C#N)c1cccc(O)c1 | -9% | 0.84
Cc1nc(N2CCOCC2)ccc1NC(=O)[C@@H](N)C(F)(F)F | 2% | -0.25
C[C@](NC(=O)c1cc2c(s1)CCOC2)(C(=O)O)c1ccc(F)cc1 | 5% | -0.76
C=CCN1C[C@@H](C(=O)NCc2cccnc2Oc2ccccc2)CC1=O | 8% | -1.17
CCCN1CCC(N2CCN(c3nc(C)nc(C)c3C)CC2)CC1 | -1% | 0.07
C[C@]1(CNc2cc(C(=O)N3CCCCC3)ccn2)CCCO1 | -20% | 1.8
C[C@H](NS(=O)(=O)Cc1ccon1)c1c(F)cccc1Cl | 4% | -0.61
O=C(Nc1cccc(C2OC(=O)N(Cc3cccc(Cl)c3)C2C(=O)NCCc2ccccn2)c1)c1ccccc1F (centres undefined) | -7% | 0.87
COc1ccc(CN2CC(=O)Nc3ccccc32)cc1F | -5% | 0.88
O=C(NC1CC1)[C@@H]1CNCCN1C(=O)CCn1cc(Cl)cn1 | -10% | 1.58
CN(C)c1nc(N2CCCCC2)nc2c1CN(C(=O)c1ccc(F)cc1F)CC2 | -16% | 1.78
CCc1cnccc1C(=O)NCc1cccc(C(=O)N2CCCC2)c1 | -1% | 0.11
CC(C)(CN1CCC[C@H]1c1nc(-c2ccncc2)no1)N1CCOCC1 | -9% | 1.88
Cc1[nH]c2c(C)ccc(C)c2c1CC(=O)NCCc1c[nH]cn1 | 5% | -0.91
Cc1ccc(C(=O)NCC2(C(=O)O)CCCCC2)o1 | -5% | 0.66
CC1CCCC(C)N1C(=O)CN1C(=O)CN(c2ccccc2)C1=O (centres undefined) | -2% | 0.28
CNc1snc(C)c1C(=O)N1CCc2cc(OC)c(OC)cc2C1 | -12% | 1.09
CCN1CCN(CC(=O)N2N=C(c3ccc(C)c(C)c3)C[C@H]2c2cccn2C)CC1 | 39% | -1.21
